# Where “and” joins values, the source holds several entries; their conditions need not be identical. Identical values can stand only once. Further values from the same series stand in other lists. Inconclusive results and toxic doses are left out.
# Test system: CD2F1 mice, L1210 leukemia sc, survival T/C
# Assay: NCI In Vivo Anticancer Drug Screen. Data for tumor model L1210 Leukemia (subcutaneous) in CD2F1 (CDF1) mice
# Details: endpoint: median survival time, higher = longer survival
# Protocol: The antitumor activity of compounds was measured in mice bearing transplantable tumors. Survival or tumor size were measured and the results are expressed as the measurement made in the treated group (T) divided by the measurement made in the vehicle treated control group (C). The tumor model used in this assay is L1210 Leukemia (subcutaneous) in CD2F1 (CDF1) mice
smiles,measurement,setting,value
CN(Cc1cnc2nc(N)nc(N)c2n1)c1ccc(C(=O)N[C@@H](CCC(=O)O)C(=O)O)cc1,T/C,"dose: 0.16 mg/kg/injection, schedule: Q#A X Z (sc), vehicle: other",218 % of control
same,T/C,"dose: 0.19 mg/kg/injection, schedule: Q01DX009 (ip), vehicle: sodium bicarbonate",97 % of control
same,T/C,"dose: 0.27 mg/kg/injection, schedule: Q#A X Z (sc), vehicle: other",209 % of control
same,T/C,"dose: 0.37 mg/kg/injection, schedule: Q01DX Z (sc), vehicle: other",247 % of control
same,T/C,"dose: 0.39 mg/kg/injection, schedule: Q01DX Z (ip), vehicle: other",220 % of control
same,T/C,"dose: 0.39 mg/kg/injection, schedule: Q#A X Z (sc), vehicle: other",205 % of control
same,T/C,"dose: 0.42 mg/kg/injection, schedule: Q01DX Z (sc), vehicle: other",208 % of control
same,T/C,"dose: 0.45 mg/kg/injection, schedule: Q01DX Z (sc), vehicle: other",204 % of control and 230 % of control and 231 % of control
same,T/C,"dose: 0.46 mg/kg/injection, schedule: Q01DX Z (sc), vehicle: other",227 % of control and 228 % of control
same,T/C,"dose: 0.5 mg/kg/injection, schedule: Q01DX009 (ip), vehicle: sodium bicarbonate",187 % of control
same,T/C,"dose: 0.5 mg/kg/injection, schedule: Q01DX Z (sc), vehicle: other",238 % of control and 266 % of control
same,T/C,"dose: 0.65 mg/kg/injection, schedule: Q01DX Z (ip), vehicle: other",215 % of control and 250 % of control
same,T/C,"dose: 0.7 mg/kg/injection, schedule: Q01DX Z (sc), vehicle: other",200 % of control
same,T/C,"dose: 0.74 mg/kg/injection, schedule: Q01DX Z (sc), vehicle: other",250 % of control
same,T/C,"dose: 0.75 mg/kg/injection, schedule: Q01DX Z (ip), vehicle: sodium bicarbonate",260 % of control
same,T/C,"dose: 0.75 mg/kg/injection, schedule: Q01DX Z (sc), vehicle: other",241 % of control and 250 % of control and 287 % of control
same,T/C,"dose: 0.76 mg/kg/injection, schedule: Q01DX Z (oral), vehicle: other",186 % of control
same,T/C,"dose: 0.76 mg/kg/injection, schedule: Q01DX Z (sc), vehicle: other",245 % of control and 272 % of control
same,T/C,"dose: 1.0 mg/kg/injection, schedule: Q01DX Z (sc), vehicle: other",188 % of control and 233 % of control
same,T/C,"dose: 1.08 mg/kg/injection, schedule: Q01DX Z (ip), vehicle: other",190 % of control and 210 % of control
same,T/C,"dose: 1.08 mg/kg/injection, schedule: Q01DX Z (iv), vehicle: other",240 % of control
same,T/C,"dose: 1.17 mg/kg/injection, schedule: Q01DX Z (sc), vehicle: other",220 % of control
same,T/C,"dose: 1.24 mg/kg/injection, schedule: Q01DX Z (sc), vehicle: other",243 % of control
same,T/C,"dose: 1.25 mg/kg/injection, schedule: Q01DX Z (sc), vehicle: other",220 % of control
same,T/C,"dose: 1.26 mg/kg/injection, schedule: Q01DX Z (sc), vehicle: other",227 % of control
same,T/C,"dose: 1.5 mg/kg/injection, schedule: Q01DX Z (ip), vehicle: sodium bicarbonate",195 % of control
same,T/C,"dose: 1.5 mg/kg/injection, schedule: Q01DX Z (ip), vehicle: water",205 % of control
same,T/C,"dose: 1.5 mg/kg/injection, schedule: Q01DX Z (sc), vehicle: other",206 % of control and 235 % of control
same,T/C,"dose: 1.8 mg/kg/injection, schedule: Q01DX Z (ip), vehicle: other",185 % of control
same,T/C,"dose: 1.8 mg/kg/injection, schedule: Q01DX Z (iv), vehicle: other",188 % of control and 235 % of control
same,T/C,"dose: 2.1 mg/kg/injection, schedule: Q01DX Z (oral), vehicle: other",190 % of control
same,T/C,"dose: 2.1 mg/kg/injection, schedule: Q01DX Z (sc), vehicle: other",186 % of control
same,T/C,"dose: 2.17 mg/kg/injection, schedule: Q01DX Z (oral), vehicle: other",188 % of control
same,T/C,"dose: 3.0 mg/kg/injection, schedule: Q01DX009 (sc), vehicle: sodium bicarbonate",186 % of control
same,T/C,"dose: 3.5 mg/kg/injection, schedule: Q01DX Z (oral), vehicle: other",195 % of control
same,T/C,"dose: 5.0 mg/kg/injection, schedule: Q01DX Z (oral), vehicle: other",190 % of control
same,T/C,"dose: 8.0 mg/kg/injection, schedule: Q01DX009 (ip), vehicle: sodium bicarbonate",93 % of control

# From PubChem BioAssay AID258 (DTP/NCI, 2004)
